Some of the results follow.
How the values were obtained:
Experiment in all cases: glycan array binding signal (z-score within array); higher = stronger binding
Conditions in all cases: glycan notation: IUPAC condensed, linker removed
Gal(a1-4)GlcNAc = biological target: Gal(a1-4)GlcNAc
Summary of the method: (§1)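 Glycan array data were curated from 3228 arrays in the Consortium for Functional Glycomics database and kept only where the protein sequence was available. Glycan names were converted to IUPAC-condensed notation, and columns mapping to the same glycan were averaged. The binding signal is a within-array Z-score, averaged across arrays of the same protein sequence at different concentrations or buffers and across linkers. Negative Z-scores can be read as non-binding.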

Gal(a1-6)Glc = biological target: Gal(a1-6)Glc
Summary of the method: as §1

Gal(b1-2)Gal = biological target: Gal(b1-2)Gal
Summary of the method: as §1

Gal(b1-3)Gal = biological target: Gal(b1-3)Gal
Summary of the method: as §1

Gal(b1-3)GalNAc = biological target: Gal(b1-3)GalNAc
Summary of the method: as §1

[1] = biological target: Gal(b1-3)GalNAc(b1-3)Gal(a1-4)Gal(b1-4)Glc
Summary of the method: as §1

[2] = biological target: Gal(b1-3)GalNAc(b1-3)Gal(b1-4)Glc
Summary of the method: as §1

[3] = biological target: Gal(b1-3)GalNAc(b1-3)Gal(b1-4)GlcNAc
Summary of the method: as §1

[4] = biological target: Gal(b1-3)GalNAc(b1-4)Gal(b1-4)Glc
Summary of the method: as §1

[5] = biological target: Gal(b1-3)GalNAc(b1-4)[Neu5Ac(a2-3)]Gal(b1-4)Glc
Summary of the method: as §1

[6] = biological target: Gal(b1-3)[Fuc(a1-4)]GlcNAc
Summary of the method: as §1

[7] = biological target: Gal(b1-3)[Fuc(a1-4)]GlcNAc(b1-3)Gal(b1-4)GlcNAc
Summary of the method: as §1

[8] = biological target: Gal(b1-3)[Fuc(a1-4)]GlcNAc(b1-3)Gal(b1-4)[Fuc(a1-3)]GlcNAc
Summary of the method: as §1

[9] = biological target: Gal(b1-3)[GlcNAc(b1-6)]GalNAc
Summary of the method: as §1

[10] = biological target: Gal(b1-3)[GlcNAc(b1-6)]GlcNAc
Summary of the method: as §1

[11] = biological target: Gal(b1-3)[Neu5Ac(a2-6)]GalNAc
Summary of the method: as §1

[12] = biological target: Gal(b1-3)[Neu5Ac(a2-6)]GlcNAc
Summary of the method: as §1

[13] = biological target: Gal(b1-3)[Neu5Ac(a2-6)]GlcNAc(a1-4)Gal(b1-4)Glc
Summary of the method: as §1

[14] = biological target: Gal(b1-3)[Neu5Ac(b2-6)]GlcNAc
Summary of the method: as §1

[15] = biological target: Gal(b1-4)GalNAc(a1-3)[Fuc(a1-2)]Gal(b1-4)GlcNAc
Summary of the method: as §1

[16] = biological target: Gal(b1-4)GalNAc(b1-3)[Fuc(a1-2)]Gal(b1-4)GlcNAc
Summary of the method: as §1

Gal(b1-4)Glc = biological target: Gal(b1-4)Glc
Summary of the method: as §1

Gal(b1-4)Glc6S = biological target: Gal(b1-4)Glc6S
Summary of the method: as §1

Gal(b1-4)GlcNAc = biological target: Gal(b1-4)GlcNAc
Summary of the method: as §1

[17] = biological target: Gal(b1-4)GlcNAc(b1-2)Man(a1-3)[Gal(b1-4)GlcNAc(b1-2)Man(a1-6)]Man(b1-4)GlcNAc(b1-4)GlcNAc
Summary of the method: as §1

[18] = biological target: Gal(b1-4)GlcNAc(b1-3)Gal(b1-4)Glc
Summary of the method: as §1

[19] = biological target: Gal(b1-4)GlcNAc(b1-3)Gal(b1-4)GlcNAc
Summary of the method: as §1

[20] = biological target: Gal(b1-4)GlcNAc(b1-3)Gal(b1-4)GlcNAc(b1-3)Gal(b1-4)GlcNAc
Summary of the method: as §1

[21] = biological target: Gal(b1-4)GlcNAc(b1-3)Gal(b1-4)[Fuc(a1-3)]GlcNAc(b1-3)Gal(b1-4)[Fuc(a1-3)]GlcNAc
Summary of the method: as §1

[22] = biological target: Gal(b1-4)GlcNAc(b1-3)GalNAc
Summary of the method: as §1

[23] = biological target: Gal(b1-4)GlcNAc(b1-3)[Gal(b1-4)GlcNAc(b1-6)]GalNAc
Summary of the method: as §1

[24] = biological target: Gal(b1-4)GlcNAc(b1-6)GalNAc
Summary of the method: as §1

[25] = biological target: Gal(b1-4)GlcNAc(b1-6)[Gal(b1-3)]GalNAc
Summary of the method: as §1

[26] = biological target: Gal(b1-4)GlcNAc(b1-6)[Gal(b1-3)]GlcNAc
Summary of the method: as §1

Gal3S(b1-3)GalNAc = biological target: Gal3S(b1-3)GalNAc
Summary of the method: as §1

Gal3S(b1-3)GlcNAc = biological target: Gal3S(b1-3)GlcNAc
Summary of the method: as §1

[27] = biological target: Gal3S(b1-3)[Fuc(a1-4)]GlcNAc
Summary of the method: as §1

Gal3S(b1-4)Glc = biological target: Gal3S(b1-4)Glc
Summary of the method: as §1

Gal3S(b1-4)Glc6S = biological target: Gal3S(b1-4)Glc6S
Summary of the method: as §1

Gal3S(b1-4)GlcNAc = biological target: Gal3S(b1-4)GlcNAc
Summary of the method: as §1

Gal3S(b1-4)GlcNAc6S = biological target: Gal3S(b1-4)GlcNAc6S
Summary of the method: as §1

Gal3S6S(b1-4)GlcNAc = biological target: Gal3S6S(b1-4)GlcNAc
Summary of the method: as §1

Gal3S6S(b1-4)GlcNAc6S = biological target: Gal3S6S(b1-4)GlcNAc6S
Summary of the method: as §1

Gal4S(b1-4)GlcNAc = biological target: Gal4S(b1-4)GlcNAc
Summary of the method: as §1

Gal4S6S(b1-4)GlcNAc = biological target: Gal4S6S(b1-4)GlcNAc
Summary of the method: as §1

B1: CVNH0 (Neurospora crassa), Q7S6U4 (protein)
chain: GSHIGPYMSFHVTAEDARIEVRDNRTILFARLRREDGEWNDASYELDQIIGNNDGHFQWGGQNFTETAEDIRFHPKEGAAEQPILRARLRDCNGEFHDRDVNLTEIVENVNGEFQAKF
How did the “glycan array binding signal (z-score)” value (Gal(a1-4)GlcNAc) turn out when B1 was run?
Its value is -0.362.

And the “glycan array binding signal (z-score)” value (Gal(a1-6)Glc)?
The value was 2.87.

What about the “glycan array binding signal (z-score)” value (Gal(b1-2)Gal) of the same binder?
Its value is -0.103.

And the “glycan array binding signal (z-score)” value (Gal(b1-3)Gal)?
The value was -0.354.

What about the “glycan array binding signal (z-score)” value (Gal(b1-3)GalNAc) of the same binder?
The value was -0.26.

And the “glycan array binding signal (z-score)” value [1]?
Its value is 2.29.

And the “glycan array binding signal (z-score)” value [2]?
The value was 3.05.

And the “glycan array binding signal (z-score)” value [3]?
The value was -0.433.

And the “glycan array binding signal (z-score)” value [4]?
Its value is -0.428.

What about the “glycan array binding signal (z-score)” value [5] of the same binder?
The value was -0.256.

And the “glycan array binding signal (z-score)” value [6]?
Its value is -0.427.

What about the “glycan array binding signal (z-score)” value [7] of the same binder?
The value was -0.427.

And the “glycan array binding signal (z-score)” value [8]?
Its value is -0.382.

And the “glycan array binding signal (z-score)” value [9]?
The value was -0.259.

What about the “glycan array binding signal (z-score)” value [10] of the same binder?
Its value is -0.438.

And the “glycan array binding signal (z-score)” value [11]?
The value was -0.422.

What about the “glycan array binding signal (z-score)” value [12] of the same binder?
The value was -0.448.

And the “glycan array binding signal (z-score)” value [13]?
The value was 3.5.

What about the “glycan array binding signal (z-score)” value [14] of the same binder?
Its value is -0.429.

What about the “glycan array binding signal (z-score)” value [15] of the same binder?
Its value is 0.502.

And the “glycan array binding signal (z-score)” value [16]?
The value was -0.431.

What about the “glycan array binding signal (z-score)” value (Gal(b1-4)Glc) of the same binder?
Its value is -0.185.

What about the “glycan array binding signal (z-score)” value (Gal(b1-4)Glc6S) of the same binder?
Its value is -0.423.

And the “glycan array binding signal (z-score)” value (Gal(b1-4)GlcNAc)?
Its value is -0.348.

What about the “glycan array binding signal (z-score)” value [17] of the same binder?
Its value is -0.426.

What about the “glycan array binding signal (z-score)” value [18] of the same binder?
The value was 1.27.

What about the “glycan array binding signal (z-score)” value [19] of the same binder?
Its value is -0.427.

What about the “glycan array binding signal (z-score)” value [20] of the same binder?
Its value is -0.432.

And the “glycan array binding signal (z-score)” value [21]?
The value was -0.186.

What about the “glycan array binding signal (z-score)” value [22] of the same binder?
Its value is -0.284.

And the “glycan array binding signal (z-score)” value [23]?
Its value is 0.05.

What about the “glycan array binding signal (z-score)” value [24] of the same binder?
The value was -0.441.

And the “glycan array binding signal (z-score)” value [25]?
Its value is -0.375.

And the “glycan array binding signal (z-score)” value [26]?
Its value is -0.381.

What about the “glycan array binding signal (z-score)” value (Gal3S(b1-3)GalNAc) of the same binder?
Its value is -0.424.

And the “glycan array binding signal (z-score)” value (Gal3S(b1-3)GlcNAc)?
Its value is -0.419.

What about the “glycan array binding signal (z-score)” value [27] of the same binder?
The value was -0.416.

And the “glycan array binding signal (z-score)” value (Gal3S(b1-4)Glc)?
The value was -0.23.

What about the “glycan array binding signal (z-score)” value (Gal3S(b1-4)Glc6S) of the same binder?
Its value is 0.76.

And the “glycan array binding signal (z-score)” value (Gal3S(b1-4)GlcNAc)?
The value was -0.192.

What about the “glycan array binding signal (z-score)” value (Gal3S(b1-4)GlcNAc6S) of the same binder?
The value was -0.421.

What about the “glycan array binding signal (z-score)” value (Gal3S6S(b1-4)GlcNAc) of the same binder?
The value was -0.42.

And the “glycan array binding signal (z-score)” value (Gal3S6S(b1-4)GlcNAc6S)?
Its value is -0.411.

And the “glycan array binding signal (z-score)” value (Gal4S(b1-4)GlcNAc)?
The value was -0.403.

And the “glycan array binding signal (z-score)” value (Gal4S6S(b1-4)GlcNAc)?
Its value is -0.413.
